Data as given in PubChem BioAssay AID1346428 (National Center for Advancing Translational Sciences (NCATS), 2018).
The campaign covered roughly 48,000 compounds. About 1,200 (2.5%) were called active. Inconclusive results (about 2%) are left out.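 The calls were made as follows: active = activation of at least 60% and not above a set upper limit (about 1 call in 100 departs from these limits); inconclusive = activation of 40% to 60%, or above that upper limit; inactive = activation under 40%.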 The list shows a part of the results.

target: Probable G-protein coupled receptor 32 (Homo sapiens) (UniProt O75388); test: qHTS for Agonists of Human Resolvin D1 Receptor DRV1; details: CHO-K1 GPR32 beta-arrestin PathHunter luminescence, 90 min; at 76.9 µM; active compounds read high; zero percent set by DMSO-only wells; also: 0% is about no effect
How it was run: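 Engineered CHO-K1 line co-expressing GPR32-ProLink and EA-beta-arrestin. Compound treatment lasted 90 min at 37 °C. Luminescence was recorded after 1 h with substrate at ambient temperature, relative to DMSO basal wells.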

UniProt O75388, sequence (O75388 whole entry, looked up): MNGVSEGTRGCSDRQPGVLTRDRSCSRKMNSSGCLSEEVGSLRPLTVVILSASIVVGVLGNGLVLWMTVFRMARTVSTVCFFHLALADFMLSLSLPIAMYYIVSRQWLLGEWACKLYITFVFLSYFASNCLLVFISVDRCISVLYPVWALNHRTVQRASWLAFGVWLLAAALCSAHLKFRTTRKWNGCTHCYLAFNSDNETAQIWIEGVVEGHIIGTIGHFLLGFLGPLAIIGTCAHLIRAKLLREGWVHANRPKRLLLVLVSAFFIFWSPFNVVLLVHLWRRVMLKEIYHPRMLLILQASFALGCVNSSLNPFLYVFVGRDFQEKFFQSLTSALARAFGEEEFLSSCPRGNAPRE

| SMILES | activation |
| --- | --- |
| CCCNC(=O)C1CCC(Cn2c(=O)c3sccc3n(CC(=O)Nc3ccccc3C)c2=O)CC1 (stereo not drawn) | inactive: 2.58% |
| Cc1cccc(NC(=O)C2CCN(S(=O)(=O)c3ccc4c(c3)CCCC(=O)N4)CC2)c1 | inactive: -12% |
| COC(=O)c1c(NC(=O)c2cc3nc(-c4ccc(Br)cc4)cc(C(F)(F)F)n3n2)sc2c1CCCC2 | inactive: -21.7% |
| COc1ccc(OC)c(NC(=O)N2CCC(N3CCN(Cc4ccc(F)cc4)C(=O)C3=O)CC2)c1 | inactive: 20.8% |
| CCc1ccc(Nc2cc(C(=O)NCCCN(C)c3ccccc3)c3ccccc3n2)cc1 | inactive: -17.2% |
| CCOc1ccc(CCNC(=O)c2sc3ncccc3c2-n2c(C)ccc2C)cc1 | inactive: 4.79% |
| CCc1noc(-c2ccc(N(C)Cc3ccc(OC)cc3)c([N+](=O)[O-])c2)n1 | inactive: -12.7% |
| COc1ccc(-c2cc(C(F)(F)F)nc(SCCC(=O)Nc3cccc(O)c3)n2)cc1 | inactive: 31.7% |
| Cc1cc(=O)n(CC(=O)Nc2cccc([N+](=O)[O-])c2)c(-n2nc(C)cc2C)n1 | inactive: -18.9% |
| CC(NC(=O)c1ccc2nc(Cc3ccccc3)oc2c1)c1ccccc1 (stereo not drawn) | inactive: -16.5% |
| Cc1c(Cl)cccc1NC(=O)C(=O)NCC(c1cccnc1)N1CCN(c2ccccc2)CC1 (stereo not drawn) | inactive: -9.01% |
| COc1ccc(NC(=O)Cn2cc(C(=O)C3CCCCC3)c3ccccc32)cc1 | inactive: -15.9% |
| COCc1cc(C)nc2sc3c(c12)NC(c1ccccc1C(=O)O)N(c1ccc(OC)cc1)C3=O (stereo not drawn) | inactive: -21.5% |
| CC(=O)c1ccc(NC(=O)COc2ccccc2-c2nc(-c3ccccc3)no2)cc1 | inactive: -10.1% |
| CCc1ccc(C(=O)c2cn(CC(=O)Nc3ccc4c(c3)OCCO4)c3ccc(C)cc3c2=O)cc1 | inactive: 11.8% |
| CCOC(=O)c1c(C)[nH]c(C)c1S(=O)(=O)NCC(=O)N1CCN(c2cc(Cl)ccc2C)CC1 | inactive: 6.23% |
| O=C(CCSCc1ccccc1Cl)N1CCN(c2ccc(F)cc2)CC1 | inactive: -26.9% |
| CC(Oc1ccccc1)C(=O)N1CCN(Cc2cc(=O)n3nc(-c4ccccc4Cl)sc3n2)CC1 (stereo not drawn) | inactive: -1.77% |
| O=c1cc(CN2CCN(S(=O)(=O)c3ccccc3)CC2)nc2sc(-c3ccccc3Cl)nn12 | inactive: -1.69% |
| Cc1ccc(C)c(NC(=O)c2nnn(CC(=O)Nc3cccc(C)c3C)c2N)c1 | inactive: 1.73% |
| O=c1c2c3c(sc2n(Cc2cc(=O)n4ccccc4n2)c(=O)n1-c1ccccc1)CCC3 | inactive: -12% |

| SMILES | activation |
| --- | --- |
| Cc1ccc(NC(=O)C(Cc2ccccc2)NS(=O)(=O)c2cccs2)cc1Cl (stereo not drawn) | inactive: -3.06% |
| O=C(CS(=O)(=O)c1nc(-c2ccc(Cl)cc2)cn1-c1ccccc1)Nc1ccc(F)cc1F | inactive: 3.09% |
| COc1ccccc1CNC(=O)CN1C(=O)c2cccnc2Oc2ccccc21 | inactive: -10.3% |
| Cc1ccc(-c2noc(CSc3nnc(C)n3-c3ccc(C)cc3)n2)cc1 | inactive: -11.8% |
| COc1ccc(/C=C/c2onc(C)c2S(=O)(=O)N2CCC(C(=O)N3CCCCC3)CC2)cc1 | inactive: -18.6% |
| COc1ccc(NC(=O)CCCc2nnc3n(CCC(C)C)c(=O)c4sccc4n23)cc1Cl | inactive: -19.2% |
| COc1ccc(OCCSc2nc3ccccc3n2CC(=O)N2CCOCC2)cc1 | inactive: -11.8% |
| COc1ccc(-c2cc(C(C)=O)c(C)n2CCC(=O)NC2CCCCC2)cc1 | inactive: -8.37% |
| CCOc1ccc(CNC(=O)C2CCN(C(=O)c3sccc3-n3cccc3)CC2)cc1 | inactive: -26.4% |
| Cc1ccc(-n2c(SCCC(C)C)nc3sc4c(c3c2=O)CC(C)(C)OC4)cc1 | inactive: -7.15% |
| COc1ccc(S(=O)(=O)Nc2cccc(-c3ccc(N4CCCC4)nn3)c2)cc1OC | inactive: 26.5% |
| O=C(Nc1cccc(C(F)(F)F)c1)Nc1nnc(N2CCCCC2)s1 | inactive: -6.83% |
| Clc1ccc(CNc2cc(-c3ccccc3)nc3nncn23)cc1 | inactive: 0% |
| CCCNC(=O)Cn1nc(-c2ccc(C)c(C)c2)c2cnc3ccc(F)cc3c21 | inactive: 10.8% |
| Cc1ccc(C)c(CN2C(=O)CSc3ccc(C(=O)NCCc4ccc(Cl)cc4)cc32)c1 | inactive: 10% |
| CCN(c1ccccc1)S(=O)(=O)c1ccc2[nH]cc(C(=O)NCc3ccc(C)cc3)c(=O)c2c1 | active: 62.8% |
| N#Cc1c(Nc2cccc(F)c2)sc(C(=O)c2ccc(Cl)cc2)c1N | inactive: -8.01% |
| COc1ccc(N2CC(NC(=O)c3ccc(OC(C)C)cc3)CC2=O)cc1 (stereo not drawn) | inactive: -9.67% |
| Cc1c(-c2ccc(Cl)cc2)c(=O)oc2c(CN3CCCC3)c(O)ccc12 | inactive: 5.42% |
| Cc1cc(C)nc(NS(=O)(=O)c2ccc(N)cc2)n1 | inactive: 12.2% |
| Cc1ccc(OCC(=O)Nc2ccc3nc(Nc4cccc(Cl)c4)cc(C)c3c2)cc1 | inactive: 1.86% |

| SMILES | activation |
| --- | --- |
| COc1ccc(-c2nc3sc(CCNS(=O)(=O)c4ccc(F)c(C)c4)c(C)n3n2)cc1 | inactive: 6.36% |
| COc1ccccc1CNC(=O)CN1C(=O)CCn2nc(-c3ccccc3)cc21 | inactive: -6.25% |
| COc1ccc(N(C(=O)COc2ccccc2OC)S(=O)(=O)c2ccc(Cl)cc2)cc1 | inactive: 10.5% |
| COc1cc(NS(=O)(=O)c2ccc(N)cc2)ncn1 | inactive: -1.76% |
| O=C(c1ccccc1)n1nc(-c2ccco2)nc1NCc1ccccc1Cl | inactive: -1.32% |
| CCc1ccccc1NC(=O)Nc1cc(C(=O)NCc2ccc(OC)cc2)ccc1N1CCCC1 | inactive: -17% |
| Cc1noc(C)c1S(=O)(=O)N1CCCC(C(=O)Nc2ccc(C(C)C)cc2)C1 (stereo not drawn) | inactive: -2.16% |
| COc1cccc(-n2cc(C(=O)Nc3cc(C)c(Cl)cc3OC)c3ccccc3c2=O)c1 | inactive: -20.8% |
| CCOc1ccc(CCNC(=O)C2CCC(CNS(=O)(=O)c3ccc(Cl)cc3)CC2)cc1OCC (stereo not drawn) | inactive: 44.9% |
| CC1(C)O[C@@H]2C[C@H]3[C@@H]4C[C@H](F)C5=CC(=O)C=C[C@]5(C)[C@@]4(F)[C@@H](O)C[C@]3(C)[C@]2(C(=O)CO)O1 | inactive: 0.637% |
| CCOCCCNC(=O)c1cc2c(=O)[nH]c3ccccc3c2n1C | inactive: 3.59% |
| CCOc1ccc(CNC(=O)C2CCN(c3nn4c(=O)cc(C)nc4s3)CC2)cc1 | inactive: -12.7% |
| Cc1cccc(Cn2cc(C(=O)Nc3ccc(S(N)(=O)=O)cc3)ccc2=O)c1 | inactive: 45.2% |
| O=C(C1CCN(S(=O)(=O)Cc2ccccc2)CC1)N1CCN(c2ccccc2F)CC1 | inactive: 2.24% |
| CCc1ccccc1NC(=O)C(C)n1nc(-c2ccc(C)c(C)c2)ccc1=O (stereo not drawn) | inactive: 5.97% |
| Cc1ccc(C)c(Nc2nc3nonc3nc2Nc2cccc(C)c2C)c1 | inactive: -8.15% |
| COc1ccc(Cl)cc1NC(=O)N1CCC(CN2CCCCCC2)CC1 | inactive: -14.7% |
| CCCn1c2ccccc2c2cnn(CC(=O)NCc3cc(OC)ccc3OC)c(=O)c21 | inactive: -12.8% |
| CC1=C(C(=O)OCC2CCCCC2)C(c2ccc(Cl)cc2Cl)CC(=O)N1 (stereo not drawn) | inactive: -1.48% |
| CSc1cccc(NC(=O)Cn2cnc(S(=O)(=O)N3CCCC3)c2)c1 | inactive: 13.2% |
| O=C(Nc1ccccc1OCc1cc(=O)n2ccccc2n1)c1ccccc1F | inactive: -7.94% |

| SMILES | activation |
| --- | --- |
| CCCCNC(=O)CN1C(=O)COc2ccc(S(=O)(=O)N3CCCC3)cc21 | inactive: -11.4% |
| COc1ccc(CNC(=O)CN2C(=O)CSc3ccc(S(=O)(=O)N4CCCC4)cc32)cc1 | inactive: -19.4% |
| CCOC(=O)c1cccc(NC(=O)C(Cc2ccccc2)NS(=O)(=O)c2cccc3nsnc23)c1 (stereo not drawn) | inactive: -21.2% |
| COC(=O)c1ccc(Cn2nnc3sc4c(c3c2=O)CCCC4)cc1 | inactive: -10.6% |
| COc1cc2nc(Nc3ccc(F)cc3)nc(N)c2cc1OC | inactive: 22.4% |
| CCc1ccccc1OCCSc1nnc(-c2cc(OC)c(OC)c(OC)c2)o1 | inactive: 8.3% |
| COc1ccc(CNC(=O)C(=O)NCC(c2ccco2)S(=O)(=O)c2ccc(C)cc2)cc1 (stereo not drawn) | inactive: -14.3% |
| COC(=O)N/N=C/c1c[n+]([O-])c2ccccc2[n+]1[O-] | inactive: -3.42% |
| COc1ccc(NC(=O)CN(C)S(=O)(=O)c2cccc3nsnc23)cc1 | inactive: -6.29% |
| Cc1cc(S(=O)(=O)NCC(c2ccc(N(C)C)cc2)N2CCOCC2)ccc1F (stereo not drawn) | inactive: -21.6% |
| O=C(CSC1=Nc2ccccc2N=C(c2ccc(F)cc2)C1)NCc1ccc(Cl)cc1 | inactive: -26.8% |
| CCN(CC)c1ccc(NC(=O)c2cc3c(=O)n4cccc(C)c4nc3n2C)c(C)c1 | inactive: -1.18% |
| CCCCCNC(=O)CCn1c(=O)[nH]c2ccccc2c1=O | inactive: -7.35% |
| CC(=O)c1ccc(NC(=O)c2nc3ccccc3n(C)c2=O)cc1 | inactive: 5.2% |
| CCn1nc(C)c2c(-c3ccccc3)cc(=O)n(C(C)C(=O)NCc3ccc(C)cc3)c21 (stereo not drawn) | inactive: -2.55% |
| CN(C(=O)CN(CCO)CC(=O)N(C)C(C)(C)Cc1ccccc1)C(C)(C)Cc1ccccc1 | inactive: 8.39% |
| COc1ccc(/C=C/c2nc3ccccc3c(=O)n2-c2cccc(C(F)(F)F)c2)cc1 | inactive: -11.1% |
| Cc1[nH]c(=O)[nH]c(=O)c1S(=O)(=O)N1CCN(c2cccc(Cl)c2)CC1 | inactive: 9.31% |
| Cc1ccc(CN(C(=O)COc2ccc(Cl)cc2Cl)C2CCS(=O)(=O)C2)o1 (stereo not drawn) | inactive: -23.6% |
| COc1ccc(S(=O)(=O)c2nnn(-c3ccc(C)c(Cl)c3)c2C)cc1 | inactive: -1.54% |
